59 sequences from the supplement of paper PMC9433436 can be followed below.

± gives the standard deviation of the averaged measurements. Whole data set: some 4,100 sequences, median “relative kcat/Km (krel) vs genomic leader AAAGAU” near 1.7, cut for the highest 2% near 6.5. The list shows a part of the results, in another mix than the full data.

The test has as its target T1, E. coli RNase P holoenzyme (M1 P RNA + rnpA protein) (UniProt P0A7Y8).
T1 sequence: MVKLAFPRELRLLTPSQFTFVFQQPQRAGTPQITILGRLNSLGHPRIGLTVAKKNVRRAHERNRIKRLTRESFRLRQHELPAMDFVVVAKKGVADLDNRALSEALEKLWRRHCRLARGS
The experiment in a line: relative kcat/Km (krel) vs genomic leader AAAGAU (relative (reference leader = 1)); higher = faster RNase P cleavage. As for the experimental part:
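HTS-Kin: a pool of ptRNA-Met (21C construct) with all 4096 combinations of 5' leader nucleotides N(-6) to N(-1) was processed in vitro by E. coli RNase P (P RNA + rnpA/C5 protein) under multiple-turnover conditions at 37 C, pH 8, 17.5 mM MgCl2. Residual substrate was Illumina-sequenced at several fractions reacted, and relative kcat/Km (krel) was computed by internal competition kinetics, calibrated to the genomic leader (AAAGAU = 1). The listed hexamer is the varied N(-6)..N(-1) leader (DNA letters), and it sits between a fixed 5' stem-loop flank (GCAUGCACGAAAGUGCGUGCUAUGAA) and the mature tRNA-Met starting GGCUACGUAGCUCAGUUGG. Two technical replicates are averaged.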

Where [1] appears, read: fraction of substrate reacted: ~9-10% (9.79% repeat 1, 9.1% repeat 2).
Where [2] appears, read: fraction of substrate reacted: ~13-16% (15.68% repeat 1, 13.17% repeat 2).
Where [3] appears, read: fraction of substrate reacted: ~26-29% (28.66% repeat 1, 26.4% repeat 2).

Turning to TGAATT, the “relative kcat/Km” value is, setting by setting: under setting [1], 1.85 ± 0.021; under setting [2], 2.46 ± 0.35; under setting [3], 3.24 ± 1.4.
Turning to TGCCGG, under setting [3], the “relative kcat/Km” value is 0.718 ± 0.11.
Take CGCGGA: the “relative kcat/Km” value under setting [1] came to 1.5 ± 1.2, the “relative kcat/Km” value under setting [2] was 1.39 ± 0.29 and the “relative kcat/Km” value under setting [3] stood at 1.41 ± 0.58.
For the sequence GTTAAC, the “relative kcat/Km” value amounted to 3.21 ± 1.1 under setting [1], 3.47 ± 0.18 under setting [2] and 4.84 ± 1.6 under setting [3].
The matching figures for CGGCGA: 1.47 ± 0.21, 1.16 ± 0.3 and 1.36 ± 0.19.
Consider CTTGCG, for which the “relative kcat/Km” value under setting [3] came out at 0.729 ± 0.19.
For the sequence TTACTT, the “relative kcat/Km” value under setting [1] came to 2.24 ± 1.1, the “relative kcat/Km” value under setting [2] worked out at 2.21 ± 0.15 and the “relative kcat/Km” value under setting [3] came out at 3.42 ± 1.6.
The matching figures for GCCGAT: 1.96 ± 0.66, 1.9 ± 0.9 and 2.69 ± 0.74.
On to CGAAAG, for which the “relative kcat/Km” value under setting [1] was determined as 1.8 ± 1.7, the “relative kcat/Km” value under setting [2] stood at 0.89 ± 0.88 and the “relative kcat/Km” value under setting [3] stood at 1.64 ± 0.03.
Turning to CTAGCG, under setting [3], the “relative kcat/Km” value came to 0.491 ± 0.019.
As to AGATAC, the “relative kcat/Km” value reads like this: under setting [1], 3.55 ± 1.8; under setting [2], 3.83 ± 0.48; under setting [3], 5.84 ± 2.6.
Consider TAAAGC, for which the “relative kcat/Km” value was 2.12 ± 0.83 under setting [1], 2.48 ± 0.17 under setting [2] and 2.77 ± 1.1 under setting [3].
The matching figures for TAGCGA: 2.91 ± 2.3, 2.5 ± 0.29 and 2.83 ± 1.
Regarding CAGCTT, the “relative kcat/Km” value was 2.22 ± 1.1 under setting [1], 1.55 ± 0.38 under setting [2] and 2.33 ± 0.38 under setting [3].
Take CCCGTG: the “relative kcat/Km” value under setting [1] is 0.509 ± 0.028 and the “relative kcat/Km” value under setting [3] came out at 1.07 ± 0.64.
Turning to AGTGCA, the “relative kcat/Km” value turned out to be 1.79 ± 1.6 under setting [1], 1.47 ± 0.1 under setting [2] and 1.74 ± 0.072 under setting [3].
The matching figures for GTCGAA: 4.23 ± 1.8, 5.6 ± 0.65 and 8.71 ± 2.8.
The like results for GTCCAG were, in that order, 2.58 ± 1, 2.9 ± 0.5 and 5.48 ± 2.
On to GTGTCA, for which the “relative kcat/Km” value was 1.15 ± 0.97 under setting [1], 0.779 ± 0.57 under setting [2] and 1.49 ± 0.16 under setting [3].
Turning to GAAGGA, the “relative kcat/Km” value under setting [3] was found to be 1.11 ± 0.87.
As to TCGCTG, under setting [3], the “relative kcat/Km” value was 1.37 ± 0.99.
With GGTTGA, the “relative kcat/Km” value stood at 1.13 ± 0.057 under setting [1], 1.16 ± 0.42 under setting [2] and 2.01 ± 0.83 under setting [3].
The like results for CTTTCA were, in that order, 2.49 ± 1.1, 2.19 ± 0.62 and 2.86 ± 0.99.
For the sequence AGGGGC, the “relative kcat/Km” value under setting [3] came to 1.32 ± 0.94.
On the same count and under the same terms, to GTGTAG belongs 1.71 ± 0.18.
GAAATC: the “relative kcat/Km” value under setting [1] turned out to be 0.5 ± 0.22, the “relative kcat/Km” value under setting [2] is 1.03 ± 0.073 and the “relative kcat/Km” value under setting [3] was 1.2 ± 0.25.
The matching figures for GCTCAT: 1.68 ± 0.42, 1.68 ± 0.55 and 2.74 ± 0.71.
The like results for TTCACC were, in that order, 3.91 ± 1.2, 5.63 ± 0.6 and 8.13 ± 3.
On to GTCGGA, for which the “relative kcat/Km” value runs as follows: under setting [2], 1.67 ± 1.1; under setting [3], 1.51 ± 1.2.
Regarding ATGTTG, the “relative kcat/Km” value under setting [3] came out at 0.642 ± 0.16.
For CTAAAT, the “relative kcat/Km” value by setting is: under setting [1], 2.52 ± 1; under setting [2], 2.65 ± 0.47; under setting [3], 3.31 ± 0.94.
The matching figures for CCCAAA: 3.49 ± 1.1, 3.56 ± 0.29 and 5.25 ± 1.7.
The like results for GCGACT were, in that order, 1.1 ± 0.32, 0.524 ± 0.19 and 0.962 ± 0.14.
The matching figures for TTCATA: 4.76 ± 2.5, 6.15 ± 0.55 and 8.54 ± 3.2.
Consider TACTGA, for which the “relative kcat/Km” value under setting [1] came to 3.12 ± 0.15, the “relative kcat/Km” value under setting [2] was 4.47 ± 1.6 and the “relative kcat/Km” value under setting [3] came to 5.98 ± 2.2.
Consider TTAACC, for which the “relative kcat/Km” value was found to be 1.35 ± 0.042 under setting [2] and 1.59 ± 0.1 under setting [3].
Consider GGGGAG, for which the “relative kcat/Km” value under setting [3] came out at 0.768 ± 0.06.
On to CCGAGA, for which the “relative kcat/Km” value amounted to 1.76 ± 1.6 under setting [2] and 2.53 ± 1 under setting [3].
Consider TTTGCC, for which the “relative kcat/Km” value worked out at 1.81 ± 0.95 under setting [1], 1.79 ± 0.37 under setting [2] and 2.42 ± 0.16 under setting [3].
The matching figures for CGGGAC: 1.65 ± 1.2, 1.46 ± 0.34 and 1.3 ± 0.081.
In the case of ATTCAT, the “relative kcat/Km” value runs as follows: under setting [1], 2.95 ± 1.6; under setting [2], 3.71 ± 0.32; under setting [3], 5.56 ± 2.2.
For GGTCCC, the “relative kcat/Km” value turned out to be 0.843 ± 0.49 under setting [1], 0.971 ± 0.18 under setting [2] and 1.2 ± 0.051 under setting [3].
With CCCTAA, the “relative kcat/Km” value is, setting by setting: under setting [1], 3.68 ± 0.17; under setting [2], 4.41 ± 1.4.
Take CAAGGC: the “relative kcat/Km” value under setting [3] amounted to 0.702 ± 0.41.
Still for that read-out and setting: the figure for GTACCG is 1.02 ± 0.44.
TGATCC: the “relative kcat/Km” value by setting is: under setting [1], 2.04 ± 0.87; under setting [2], 2.73 ± 0.15; under setting [3], 3.26 ± 1.2.
The like results for AGCTGT were, in that order, 1.29 ± 0.36, 1.23 ± 1.1 and 1.37 ± 1.3.
The matching figures for CGTAGA: 2.87 ± 1.5, 3.11 ± 0.054 and 5.26 ± 1.7.
Take AACTAT: the “relative kcat/Km” value runs as follows: under setting [1], 3.41 ± 0.78; under setting [2], 4.44 ± 0.83; under setting [3], 6.43 ± 3.1.
The matching figures for CGGCAT: 1.21 ± 0.2, 1.34 ± 0.02 and 1.44 ± 0.48.
The like results for TTATCC were, in that order, 2.58 ± 0.95, 2.79 ± 0.23 and 3.66 ± 1.5.
As for TGATCG, the “relative kcat/Km” value came out at 0.747 ± 0.12 under setting [2] and 2.2 ± 0.42 under setting [3].
The matching figures for TTGGCT: 0.912 ± 0.62 and 1.04 ± 0.94.
TTCACT: the “relative kcat/Km” value runs as follows: under setting [1], 4.07 ± 1.2; under setting [2], 5.27 ± 1.4; under setting [3], 7.57 ± 3.1.
For CGTTCG, the “relative kcat/Km” value under setting [1] worked out at 1.02 ± 0.66 and the “relative kcat/Km” value under setting [3] stood at 1.651 ± 0.0032.
For GGTAGC, the “relative kcat/Km” value under setting [1] was 1.74 ± 0.093, the “relative kcat/Km” value under setting [2] was found to be 1.36 ± 0.45 and the “relative kcat/Km” value under setting [3] worked out at 2.88 ± 1.1.
For the sequence GAATGG, the “relative kcat/Km” value under setting [1] is 0.451 ± 0.32 and the “relative kcat/Km” value under setting [3] amounted to 0.867 ± 0.12.
On to CTTGAC, for which the “relative kcat/Km” value was 2.3 ± 0.27 under setting [1], 3.13 ± 1.7 under setting [2] and 4.06 ± 0.98 under setting [3].
The like results for CTTTTC were, in that order, 1.94 ± 0.99, 1.89 ± 0.45 and 3.02 ± 0.83.
